Reference: PMC4336329 (PLoS ONE, 2015)
Hit rate of the full screen: of about 310,000 compounds, about 14,000 (4.5%) showed an effect of 50% or more. Effects have a minus sign here. Some of the results follow.

target: human ether-à-go-go-related gene (hERG) potassium channel (human, UniProt Q12809); test: primary screen, population patch clamp on CHO cells stably expressing hERG
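Also: peak tail current of the secondary pulse compared with the same well before compound.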

Chain of human ether-à-go-go-related gene (hERG) potassium channel (Q12809 whole entry, looked up): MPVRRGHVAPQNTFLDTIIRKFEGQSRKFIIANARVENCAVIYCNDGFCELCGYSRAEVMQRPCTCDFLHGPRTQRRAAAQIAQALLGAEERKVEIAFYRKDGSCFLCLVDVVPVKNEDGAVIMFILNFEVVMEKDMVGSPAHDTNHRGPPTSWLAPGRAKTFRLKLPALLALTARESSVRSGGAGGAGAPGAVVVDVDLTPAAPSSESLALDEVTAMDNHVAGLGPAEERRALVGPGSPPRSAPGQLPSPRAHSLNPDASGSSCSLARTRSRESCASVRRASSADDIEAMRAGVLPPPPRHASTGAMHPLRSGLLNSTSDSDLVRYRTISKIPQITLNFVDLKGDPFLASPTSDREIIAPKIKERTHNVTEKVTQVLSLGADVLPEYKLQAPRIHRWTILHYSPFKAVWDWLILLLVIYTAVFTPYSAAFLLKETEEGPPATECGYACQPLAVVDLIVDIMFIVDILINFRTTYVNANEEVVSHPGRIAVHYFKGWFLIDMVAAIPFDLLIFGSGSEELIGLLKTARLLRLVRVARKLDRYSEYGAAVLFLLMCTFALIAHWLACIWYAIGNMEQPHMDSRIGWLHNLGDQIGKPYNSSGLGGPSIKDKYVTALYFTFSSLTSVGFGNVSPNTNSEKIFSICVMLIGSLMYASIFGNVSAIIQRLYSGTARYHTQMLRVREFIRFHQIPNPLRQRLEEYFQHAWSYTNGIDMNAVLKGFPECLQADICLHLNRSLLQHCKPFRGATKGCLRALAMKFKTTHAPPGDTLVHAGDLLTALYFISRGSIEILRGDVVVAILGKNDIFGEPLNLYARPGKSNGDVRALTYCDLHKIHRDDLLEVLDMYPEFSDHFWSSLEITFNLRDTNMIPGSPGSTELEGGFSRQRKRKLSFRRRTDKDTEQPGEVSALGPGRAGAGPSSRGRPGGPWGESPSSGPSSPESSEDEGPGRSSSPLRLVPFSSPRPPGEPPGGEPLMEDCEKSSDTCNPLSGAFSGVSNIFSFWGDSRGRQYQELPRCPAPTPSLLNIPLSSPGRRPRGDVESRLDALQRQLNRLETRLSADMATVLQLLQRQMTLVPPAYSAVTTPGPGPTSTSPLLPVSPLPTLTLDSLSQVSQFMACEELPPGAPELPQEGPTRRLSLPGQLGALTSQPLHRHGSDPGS

Structure (SMILES)	hERG current change (%, negative = inhibition) at 10uM
O=C1CC(c2ccc(O)cc2)Oc2ccccc21 (stereo not drawn)	-2.97%
COc1ccc(-c2oc3ccc(-c4cc(OC)c(OC)c(OC)c4)cc3c2-c2ccc(OC)cc2)cc1	13.6%
CC(=O)N1c2ccc(S(=O)(=O)N3CCCC(C(=O)N4CCC(C)CC4)C3)cc2CC1C (stereo not drawn)	-12%
O=C(CCN1CCOCC1)N1CCCC(Nc2ccc(F)cc2)C1 (stereo not drawn)	13.7%
CCC(=O)N(CCc1ccc(S(N)(=O)=O)cc1)C1CC(=O)N(c2ccc(OC)cc2)C1=O (stereo not drawn)	1.99%
C=CCC1(C#N)C(=S)NC2=C(C(=O)CC(C)(C)C2)C1c1ccc(Br)cc1 (stereo not drawn)	1.43%
CC(C)N1CC(C(=O)Nc2nc3ccccc3s2)CC1=O (stereo not drawn)	-3.99%
CNc1nnc(-c2ccco2)s1	6.04%
CCc1ccc(OCC(=O)Nc2ccc(S(=O)(=O)Nc3cc(C)on3)cc2)c(Br)c1	-19.7%
CCCSc1nc(N)nc(-c2cccs2)c1C#N	-11.6%
Clc1ccc(-n2c(SC/C=C/c3ccccc3)nnc2-c2cccnc2)cc1	-50.3%
CCCCCc1ccc(-c2cn(Cc3ccc(C(=O)c4ccccc4)cc3)nn2)cc1	16.2%
O=C(NC1CCCCC1)NC1(C(=O)NCCCN2CCOCC2)CCCCC1	14%
CN(C)/C=N/c1nc(-c2ccc3ccccc3c2)cs1	-17.6%
CN(CC(=O)Nc1cccc(S(=O)(=O)N(C)C)c1)Cc1ccccc1	1.62%
CCCN(CCC)C(=O)C1CCC(CNS(=O)(=O)c2cccc3nsnc23)CC1 (stereo not drawn)	-69.5%
COc1ccc(OC[C@@H](O)CNC(=O)c2cccc3c2C(=O)c2ccc(Cl)cc2S3(=O)=O)cc1	-6.85%
COc1ccccc1-c1cc(C(=O)N/N=C/c2cccs2)c2ccccc2n1	11.5%
O=C(CN1CCN(Cc2ccccc2)CC1)Nc1cccc(Cl)c1	-60.7%
Cc1ccc(S(=O)(=O)N2[C@@H](c3ccc(F)cc3)C(C(=O)O)=CC[C@H]2c2ccc(Cl)cc2)cc1	11.4%
O=C(CN1C2CCCC1CC(NC(=O)C1CCCCC1)C2)Nc1ccccc1C(F)(F)F (stereo not drawn)	-1.78%
Cc1ccc(NC(=O)CSCCc2ccccn2)nc1	2.78%

Structure (SMILES)	hERG current change (%, negative = inhibition) at 10uM
Cc1nn(C)c(C)c1NC(=O)c1ccnn1C	-7.7%
O=C1NC(=O)N(c2ccccc2)C(=O)/C1=C\C=C\c1ccccc1	0.219%
CCOC(=O)c1nnc2ccnn2c1N	23.7%
Cc1ccc(COc2ccc(-c3nnco3)cc2)cc1	16%
O=C(c1ccc2snnc2c1)N1CCN(c2ccccc2)CC1	-40.7%
CC(C)CCN1CCC(n2nccc2NC(=O)C2CCOC2)CC1 (stereo not drawn)	15.3%
Cc1ccc(C2C(S(C)(=O)=O)=C(O)C(=O)N2c2ccccc2)cc1.Nc1ccccc1 (stereo not drawn)	6.31%
COc1ccc(CCN2CCCn3c2nc2c3c(=O)n(Cc3ccccc3F)c(=O)n2C)cc1OC	-42.4%
Cc1cc(NC(=O)CCC(=O)N(CC(=O)NCC2CCCO2)c2ccccc2C)no1 (stereo not drawn)	2.97%
COc1ccc(CN2CCC(C(=O)NCCc3ccc(OC)c(OC)c3)CC2)c(OC)c1	-29.9%
COc1ccccc1NC(=O)c1sc2nc3n(c(=O)c2c1C)CCC3	14%
COc1ccc(-c2noc(CCC(=O)NCCN(C)Cc3ccccc3)n2)cc1	-30.5%
COc1ccccc1CNC(=O)C1CCCN(S(=O)(=O)c2cccc3cccnc23)C1 (stereo not drawn)	-7.36%
COc1ccccc1OCC(=O)NCCSCc1cccc(Cl)c1	-21.4%
Cc1ccc(S(=O)(=O)c2nc(-c3ccccc3F)oc2N2CC(C)OC(C)C2)cc1 (stereo not drawn)	-7.94%
Cc1cc(C(=O)OCC(=O)Nc2ccc(F)cc2)c(C)n1C1CC1	5.51%
Cc1ccc2c(CC(=O)N3CCN(c4ccccc4)CC3)coc2c1	-22%
Cc1nn(C2CCS(=O)(=O)C2)c(Cl)c1/C=C/C(=O)OCC(N)=O (stereo not drawn)	7.97%
Cc1nn(-c2ccccc2)c(C)c1/C=N/NC(=O)c1cc(-c2cccc3ccccc23)n[nH]1	-7.94%
O=C(CSc1nc2c([nH]c3ccccc32)c(=O)n1-c1ccccc1F)NCC1CCCO1 (stereo not drawn)	-30.5%
O=C(/C=C/c1ccccc1)NCCSCc1ccc(Cl)cc1	5.19%
CC1=C(C(=O)N2CCCCC2)C2(CCC(C)CC2)OC1=O (stereo not drawn)	-6.74%

Structure (SMILES)	hERG current change (%, negative = inhibition) at 10uM
O=C1/C(=C/c2cccs2)SC(=S)N1CCCC(=O)N(CCO)c1ccccc1	19.4%
Cc1ccc(C(=O)N/C(=C\c2ccc(Br)cc2)c2nc(=S)[nH][nH]2)cc1	0.564%
Cc1cnc(NC(=O)CCc2ccccc2)s1	12.2%
CCCCCCCC1(C)NC(=O)NC1=O (stereo not drawn)	8.35%
O=C(NCc1cccc(F)c1)C1CCC(=O)N(C2CC2)C1 (stereo not drawn)	9.83%
CCOc1cc(-c2noc(CCC(=O)NC3CCCCC3)n2)ccc1OC	-26.7%
CC(=O)C1=C(C)N(CC2CC2)C(=O)N[C@H]1c1ccc(Br)cc1	-5.15%
COc1ccc(CNC(=O)c2ccc(CS(=O)(=O)Cc3ccccc3F)o2)cc1	-9.38%
COCCn1c(Cc2ccccc2)nnc1SCC(=O)N1CCCCC1C (stereo not drawn)	7.49%
FC(F)(F)c1ccccc1CNCc1ccc2c(c1)OCO2	0.962%
O=[N+]([O-])c1ccccc1N/N=C\c1ccccc1F	14.3%
CCOP(=O)(OCC)C(Nc1ccccc1)c1ccccc1C(F)(F)F (stereo not drawn)	13.7%
Cc1ccc(N(CC(=O)Nc2ccc(F)c(Cl)c2)S(=O)(=O)c2c(C)noc2C)cc1	14%
COc1cc2[nH]c(=O)c(C(=O)NCCCN3CCOCC3)c(O)c2cc1OC.Cl	9.48%
CCOc1ccc(-c2noc(-c3ccncc3)n2)cc1OCC	4.63%
c1ccc(C(c2nnnn2Cc2ccco2)N2CCN(c3nc4ccccc4s3)CC2)cc1 (stereo not drawn)	-8.11%
COc1ccc(C(=O)NCC(=O)NCC(=O)OCc2ccc(Cl)cc2)cc1	-6.07%
O=C(Nc1cccc(Cl)c1Cl)C1CCCC1	4.16%
Cc1csc2nc(O)c(C(=O)NCCN3CCOCC3)c(=O)n12	0.865%
COC(=O)COc1cccc(/C=N/NC(=O)CCSc2ccccc2)c1	-15.7%
Cc1cccn2c(=O)c3cc(C(=O)NC4CCCCC4C)n(C)c3nc12 (stereo not drawn)	13.7%
Cc1cccc(N2CCN(C(=O)c3ccc(NS(=O)(=O)c4ccc5[nH]c(=O)[nH]c5c4)cc3)CC2)c1C	22.4%

Structure (SMILES)	hERG current change (%, negative = inhibition) at 10uM
CC(NS(=O)(=O)c1ccccc1)C(=O)Nc1nccs1 (stereo not drawn)	11.6%
Cc1cccc(C(=O)N/N=C/c2ccc(OCC(=O)N3CCCCC3)cc2)c1	5.58%
CCOc1ccc(NC(=O)CN(C)C(=O)/C=C/c2ccc(S(=O)(=O)N3CCCCCC3)cc2)cc1OCC	16.4%
O=C1CCCN1CCC(=O)N1CCCC(N2CCN(c3ccccc3F)CC2)C1 (stereo not drawn)	3.51%
COc1ccccc1CNC(=O)CN1C(=O)NC(C)(c2ccc(C)cc2)C1=O (stereo not drawn)	5.21%
CCOC(=O)COc1ccc(/C=C2\C(=O)NC(=S)N(c3ccc(OC)cc3)C2=O)cc1OC	19.7%
CC(=O)c1c(-c2ccccc2)c2cc([N+](=O)[O-])ccc2[nH]c1=O	13.1%
CCCCOC1(c2ccccc2)OC(=O)c2ccccc21 (stereo not drawn)	-14.7%
Cl.c1ccc(C(c2nnnn2Cc2ccco2)N2CCN(C3CCCC3)CC2)cc1 (stereo not drawn)	-53.5%
CN1C(=O)C(=O)N(CC(=O)Nc2ccccc2OC(F)F)C1=O	18%
Cc1csc2ncc(C(=O)NCc3ccccn3)c(=O)n12	2.78%
COC(=O)c1c(NC(=O)CSc2nncs2)sc2c1CCCCC2	-4.29%
CCn1c(SCC(=O)Nc2ccc(Br)cc2)nc2sc3c(c2c1=O)CCN(C)C3	15.9%
CCOc1ccc(S(=O)(=O)Nc2cccc(C(=O)NCC(C)(C)N3CCOCC3)c2)cc1	-34.5%
COc1ccc(C(=O)/C=C(/C)N(C)C)cc1	-21.6%
Cc1ccc(S(=O)(=O)N(CC(=O)N2CCC(C(N)=O)CC2)Cc2ccc(F)cc2)cc1	-9.78%
O=C(CSc1nc2ncccc2[nH]1)NC1CCCC1	7.42%
COc1ccc2cc(/C=C/C(=O)N3CCN(CC(=O)N4CCCCCC4)CC3)ccc2c1	-36.9%
O=C(O)c1ccc(-n2c(/C=C/c3cccc([N+](=O)[O-])c3)nc3ccccc3c2=O)cc1	8.06%
Cl.Fc1ccc(C(c2nnnn2C2CCCCC2)N2CCCC2)cc1 (stereo not drawn)	-6.46%
CCOC(=O)C1(CC2CC2)CCN(C(=O)c2cc(C3CC3)nc3ccccc23)CC1	-27%
